Laboratory results published in PubChem BioAssay AID504466 (National Center for Advancing Translational Sciences (NCATS), 2011).
In all, about 330,000 compounds went through this assay and about 4,200 (1.3%) were called active. Inconclusive results, whose numbers are uncertain, are shown with a selection of clear calls. The call rests on the fitted dose curve; in most records, active means well fitted activation curve with a large enough effect; inconclusive means small, poorly fitted or top-dose-only effect; inactive means no such curve, though single readings can be large or run the other way. Where the call is inconclusive, the potency comes from a doubtful curve fit.

Assay: qHTS screen for small molecules that induce genotoxicity in human embryonic kidney (HEK293T) cells expressing luciferase-tagged ELG1; further: nearly all actives have a fitted effect of over 60% in size
Settings: HEK293T ELG1-luciferase reporter, luminescence, 16 h; series mostly up to 46 µM
Outline: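 ELG1-luciferase HEK293T cells, 2,000/well; compound pinned in; 16 hr, 37 °C, 5% CO2; ONE-Glo, 30 min RT; luminescence on CCD imager.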
Potency means the concentration at half of the fitted maximal effect; tags describe the fitted curve by direction and shape.

| SMILES | Potency |
| --- | --- |
| Clc1cccc(/C=N/Nc2nc(Cl)nc3ccccc23)c1 | inconclusive: 16.4 µM [activator, partial curve] |
| Cc1ccc(CNC(=O)CSCc2ccc(F)cc2)cc1 | inactive |
| CCOc1cc(NC(=S)NCC2CCCO2)c(OCC)cc1NC(=O)c1ccc(F)cc1 (stereo not given) | inactive |
| O=C(/C=C/c1ccc(Br)cc1)c1ccco1 | inconclusive: 25.9 µM [activator, partial curve, poor fit] |
| Clc1ccc(-c2nc(-c3cnccn3)no2)cc1 | inconclusive: 1.83 µM [activator, full curve] |
| O=c1[nH]nc(SCc2nc3ccccc3s2)n1C1CC1 | active: 20.6 µM |
| COc1ccc(Cc2c(O)nc(SCC(=O)NC(C)(C)C)[nH]c2=O)cc1 | inactive |
| CC(C)c1ccc(NC(=O)c2csnn2)cc1 | active: 1.16 µM |
| O=C(COC(=O)c1n[nH]c2ccccc12)Nc1ccccc1Br | inactive |
| C=CCn1c(C)cc(C(=O)COc2nncc3ccccc23)c1C | active: 10.3 µM |
| O=C(/C=C/c1ccc2c(c1)OCO2)N1CCN(c2ccccc2F)CC1 | inactive |
| O=C1c2ccccc2NC(c2ccc(F)cc2)N1Cc1ccccc1 (stereo not given) | inactive |
| Cn1c(=O)cc(OCCCC(=O)N2CCCCC2)c2ccccc21 | inconclusive: 20.6 µM [activator, single point] |
| OCc1ccc(-c2nn(Cc3ccccc3)c3ccccc23)o1 | inconclusive: 14.6 µM [activator, partial curve, poor fit] |
| O=C(CSc1ccccn1)Nc1ccc(NC(=O)CSc2ccccn2)cc1 | inactive |
| O=C(OCC(=O)N1CCC(Cc2ccccc2)CC1)c1ccc(CO)cc1 | inactive |
| Cc1cc(=O)oc(C)c1C(=O)OCC(=O)c1ccc(Cl)cc1 | inactive |
| CC(C)OC(=O)CSc1nc(N2CCOCC2)c2c(c1C#N)CC(C)(C)OC2 | inactive |
| CCOC(=O)c1c(C)[nH]c2cc(Br)c(O)cc12 | inconclusive: 23.1 µM [activator, single point] |
| O=C(Cc1ccccc1)NNC(=O)c1ccc(NC(=O)c2ccccc2)cc1 | inconclusive: 23.1 µM [activator, single point] |
| O=c1c2ccccc2nnn1CSc1ccccc1 | inconclusive: 3.66 µM [activator, partial curve] |
| CCOC(=O)c1c(NC(=O)c2cc(-c3ccc(Cl)s3)nc3ccccc23)sc(C(N)=O)c1C | inconclusive: 11.6 µM [activator, partial curve] |
| O=C(COC(=O)c1cc(S(=O)(=O)N2CCOCC2)ccc1O)NCc1ccc2c(c1)OCO2 | inactive |
| O=C(Nc1ccc(NC(=O)C2CC2)cc1)c1cccs1 | inconclusive: 5.8 µM [activator, partial curve] |
| CCC1Nc2ncnc(N3CCN(c4ccccc4)CC3)c2N(Cc2ccc(Br)cc2)C1=O (stereo not given) | inactive |
| N#Cc1c(NC(=O)c2ccccc2)sc2c1CCCCC2 | inconclusive: 0.82 µM [activator, full curve] |
| CCN(CC)C(=O)C(=O)N/N=C/c1ccc(C(=O)O)cc1 | inactive |

| SMILES | Potency |
| --- | --- |
| O=c1[nH]c(N/N=C/c2ccccc2)nc2ccccc12 | active: 2.31 µM |
| N/C(=N\OC(=O)Cc1cccs1)c1ccccc1 | inconclusive: 14.6 µM [activator, partial curve] |
| Cc1cc(C)c(C)c(Cn2c(CO)nc3ccccc32)c1C | inconclusive: 20.6 µM [activator, partial curve, poor fit] |
| Cc1cc(C(=O)Nc2nnc(C3CCCCC3)s2)cs1 | inconclusive: 2.59 µM [activator, full curve, poor fit] |
| O=C(COC(=O)C1CC1)Nc1ccc(N=Nc2ccccc2)cc1 | active: 20.6 µM |
| CN(C)c1ccc(/C=N/NC(=O)CSc2ccccn2)cc1 | inconclusive: 16.4 µM [activator, partial curve, poor fit] |
| O=C(/C=C/c1ccc(S(=O)(=O)N2CCOCC2)cc1)Nc1ccc(F)c(F)c1F | inactive |
| c1ccc(CCCc2nc(-c3ccccn3)no2)cc1 | inconclusive: 14.6 µM [activator, partial curve] |
| CC(=O)NCCc1ccc(C(=O)COC(=O)C2CCCCC2)cc1 | inconclusive: 23.1 µM [activator, partial curve, poor fit] |
| CC1CCC(NC(=O)CCN2C(=O)C3C4C=CC(C4)C3C2=O)CC1 (stereo not given) | inactive |
| Cc1cc(C)c2sc(NNC(=O)c3ccc(S(=O)(=O)N4CCc5ccccc5C4)cc3)nc2c1 | inconclusive: 6.51 µM [activator, partial curve, poor fit] |
| COC(=O)C1=C(C)N(c2ccccc2)C(=S)NC1c1ccccc1C(F)(F)F (stereo not given) | inactive |
| Cc1ccc(C(=O)Nc2ccccc2NC(=O)c2ccc(C)o2)o1 | inactive |
| CCOc1ccc2nc(NC(=O)CSCC(=O)Nc3cc(C)on3)sc2c1 | inconclusive: 9.2 µM [activator, partial curve] |
| COc1ccc2cc(C3=CCCCC3)ncc2c1 | inconclusive: 1.83 µM [activator, partial curve] |
| CC(C)CNC(=O)c1cc(-c2ccco2)on1 | inconclusive: 13 µM [activator, partial curve] |
| CCC(NC(=S)NCc1ccc(F)cc1)c1ccccc1 (stereo not given) | inactive |
| COC(=O)c1cccc(NC(=O)c2cc(OC)c(OC)c(OC)c2Br)c1 | inactive |
| O=C(CSc1ccc(-c2ccc(F)cc2)nn1)N1CCOCC1 | inconclusive: 25.9 µM [activator, partial curve, poor fit] |
| Nc1ccccc1C(=O)Nc1cccc2ccccc12 | inconclusive: 10.3 µM [activator, single point] |
| Cc1ccc(-c2nc3ccccc3o2)cc1NC(=S)NC(=O)c1cc2ccccc2o1 | inconclusive: 18.4 µM [activator, partial curve] |
| COc1ccc(S(N)(=O)=O)cc1C(=O)OCCCOC(=O)c1cc(S(N)(=O)=O)ccc1OC | active: 7.3 µM |
| O=C(NC(=O)c1ccc(C(F)(F)F)cc1)Nc1ccc(-c2cnco2)cc1 | inconclusive: 23.1 µM [activator, partial curve, poor fit] |
| COc1ccc(CC(=O)NCc2ccco2)cc1OC | inactive |
| Cc1ccc(C)c(NC(=O)c2cnn3ccccc23)c1 | inconclusive: 25.9 µM [activator, partial curve, poor fit] |
| Cc1ccc2nc(-c3cccc(S(=O)(=O)N4CCCC4)c3)cn2c1 | inactive |
| CCOc1ccc(/C=C\C(C)=N\O)cc1 | active: 10.3 µM |

| SMILES | Potency |
| --- | --- |
| CCOC(=O)Nc1ccc2c(COC(=O)CNS(=O)(=O)c3cccc(Br)c3)cc(=O)oc2c1 | inconclusive: 16.4 µM [activator, partial curve, poor fit] |
| COc1ccc(OC)c(NC(=O)c2ccc(OC3CSC3)cc2)c1 | inactive |
| CCCc1cn(S(=O)(=O)c2ccc(OC)cc2OC)nc1N | inconclusive: 25.9 µM [activator, partial curve, poor fit] |
| O=C(O)COc1ccccc1/C=N/NC(=O)CSc1nnc(SCc2ccc(Cl)cc2)s1 | inactive |
| CCOC(=O)C(C(=O)Nc1nc2ccccc2s1)C1CCCCC1 (stereo not given) | inactive |
| O=C(CNC(=O)c1ccccc1F)c1ccc(Br)cc1 | active: 5.17 µM |
| O=C(CSc1ccccc1F)NCCCN1CCCC1=O | inconclusive: 29.1 µM [activator, single point] |
| COc1ccc(C(=O)NNC(=S)NC(=O)C(C)(C)C)cc1 | inconclusive: 32.6 µM [activator, partial curve, poor fit] |
| Cn1c(-c2ccccc2)c(/C=N/NC(=O)c2ccc(O)cc2)c2ccccc21 | inconclusive: 3.26 µM [activator, full curve] |
| Cc1ccccc1C(=O)Nc1ccc2c(c1)OCO2 | active: 1.64 µM |
| O=C(Nc1ccccc1Cl)c1cccs1 | inactive |
| CC(C)[C@H](NC(=O)OCc1ccccc1)C(=O)OCC(=O)N1CCN(c2ccccc2)CC1 | inactive |
| COc1cc(OC)c(NC(=O)c2ccccc2F)cc1Cl | inactive |
| O=C(C1=C[C@H](c2ccc3c(c2)OCO3)C[C@H](OCCCCO)O1)N1CCN(Cc2ccccc2)CC1 | inactive |
| O=C(COC(=O)C12CC3CC(CC(O)(C3)C1)C2)Nc1ccc(Cl)cc1F | inconclusive: 9.2 µM [activator, partial curve] |
| C(=N\N1CCN(c2ccccn2)CC1)/c1ccco1 | inconclusive: 16.4 µM [activator, partial curve, poor fit] |
| CN(C(=O)CSc1ccc2c(c1)OCCO2)c1ccccc1 | inconclusive: 20.6 µM [activator, partial curve, poor fit] |
| CC(C)CN(C(=O)CSc1nc(-c2ccccc2)cn1N)c1c(N)n(Cc2ccccc2)c(=O)[nH]c1=O | inconclusive: 11.6 µM [activator, single point] |
| Cc1ccc(C(=O)Cn2nc(C(=O)O)c3ccccc3c2=O)cc1C | inactive |
| COc1ccc2o/c(=N/NC(=O)c3cccs3)c(C(N)=O)cc2c1 | inactive |
| O=C(NC(=S)NCCO)c1sc2ccccc2c1Cl | inconclusive: 16.4 µM [activator, partial curve, poor fit] |
| Nc1cc(=O)[nH]c(SCCSc2ccccc2)n1 | inactive |
| CCOC(=O)c1ccc(NC(=O)N2CCN(C3CCCCC3)CC2)cc1 | inactive |
| COc1ccccc1N1CCN(C(=O)CSc2nc3ccccc3nc2N2CCC(C)CC2)CC1 | inactive |
| CN1CCSc2ccc(C(=O)Nc3cccc(F)c3)cc21 | active: 2.06 µM |
| CCOC(=O)c1[nH]c2ccc(C)cc2c1NC(=O)CN1CCCCC1 | inactive |
